We go through 153 variants from a collection of fitness landscapes (doi:10.1126/science.1257360).

The labels stand for the following.
B1: PhoQ; a variant is named by its letters at X, in order, P23837 (parent)
chain: MKKLLRLFFPLSLRVRFLLATAAVVLVLSLAYGMVALIGYSVSFDKTTFRLLRGESNLFYTLAKWENNKLHVELPENIDKQSPTMTLIYDENGQLLWAQRDVPWLMKMIQPDWLKSNGFHEIEADVNDTSLLLSGDHSIQQQLQEVREDDDDAEMTHSVAVNVYPATSRMPKLTIVVVDTIPVELKSSYMVWSWFIYVLSANLLLVIPLLWVAAWWSLRPIEALAKEVRELEEHNRELLNPATTRELTSLVRNLNRLLKSERERYDKYRTTLTDLTHSLKTPLXXLQXXLRSLRSEKMSVSDAEPVMLEQISRISQQIGYYLHRASMRGGTLLSRELHPVAPLLDNLTSALNKVYQRKGVNISLDISPEISFVGEQNDFVEVMGNVLDNACKYCLEFVEISARQTDEHLYIVVEDDGPGIPLSKREVIFDRGQRVDTLRPGQGVGLAVAREITEQYEGKIVAGESMLGGARMEVIFGRQHSAPKDE

The list shows a part of the results.

Variants of B1 are the subject of the test. Put plainly: enrichment ratio after two sorts for PhoP signalling (ratio (wild type AVST 3.29)); higher = more functional. The note with it: with PhoP (E. coli).
Regarding YNQT, the enrichment ratio is at most 0.25. The same measure for GEGH: at most 0.25; for KQWD: at most 0.25; for SWEH: at most 0.25. With MKEN, the enrichment ratio is at most 0.25. In the case of DQHM, the enrichment ratio is at most 0.25. On to VWPW, for which the enrichment ratio was at most 0.25. With EEIT the figure was at most 0.25; with WAFV, at most 0.25. The same measure for LKYQ: at most 0.25; for GWYH: at most 0.25; for AECA: 42.4. With TDCY, the enrichment ratio came to 9.9. The same measure for AKFE: at most 0.25; for EIVR: at most 0.25; for WTSA: at most 0.25. Turning to YHPK, the enrichment ratio is at most 0.25. For the variant FLSE, the enrichment ratio was at most 0.25.

For AKGN, the enrichment ratio was at most 0.25.

Take MHDE: the enrichment ratio is at most 0.25. As for WKAT, the enrichment ratio was at most 0.25.

As for VCQK, the enrichment ratio was at most 0.25. In the case of WQSI, the enrichment ratio is at most 0.25. For FKGR, the enrichment ratio is at most 0.25.

Consider VTEG, for which the enrichment ratio was at most 0.25.

On to AEAI, for which the enrichment ratio stood at 14.2.

Consider NPKK, for which the enrichment ratio was at most 0.25. With NRLI the figure was at most 0.25; with SAMC, 18.1. The same measure for DIQQ: at most 0.25; for NGMI: 0.49. The same measure for SSHQ: at most 0.25.

On to YQYT, for which the enrichment ratio is at most 0.25.

Take DKSG: the enrichment ratio was at most 0.25. Regarding WQTQ, the enrichment ratio was at most 0.25. As to TYNF, the enrichment ratio was at most 0.25. With DEGY the figure was at most 0.25; with TDVN, 1.05; with MQVA, at most 0.25.

Turning to ATQR, the enrichment ratio is at most 0.25. For WLTA, the enrichment ratio is at most 0.25. Turning to WGKL, the enrichment ratio was at most 0.25. On to QYQE, for which the enrichment ratio was at most 0.25. Consider IISL, for which the enrichment ratio was at most 0.25. TWEP: the enrichment ratio was at most 0.25. In the case of VNTH, the enrichment ratio was at most 0.25. With GKAS the figure was at most 0.25.

Consider SECC, for which the enrichment ratio came to 38. As for IFLT, the enrichment ratio was at most 0.25. Consider LLHA, for which the enrichment ratio is at most 0.25.

In the case of FTCT, the enrichment ratio is at most 0.25. Turning to MGPL, the enrichment ratio is at most 0.25. As to PVWF, the enrichment ratio was at most 0.25.

Take PPPR: the enrichment ratio was at most 0.25.

In the case of RDYW, the enrichment ratio was at most 0.25.

QFFI: the enrichment ratio is at most 0.25. With SMRK the figure was at most 0.25; with DHPK, at most 0.25; with SEVC, 9.44.

Consider HLRL, for which the enrichment ratio is at most 0.25.

LDHI: the enrichment ratio was at most 0.25. Regarding YYKI, the enrichment ratio was at most 0.25. With HKYS the figure was at most 0.25; with AVSC, 12.2; with AEAV, 15.8. With GSAD, the enrichment ratio is at most 0.25. For TPHA, the enrichment ratio was at most 0.25. Take GEVH: the enrichment ratio amounted to 3.28. For GMCN, the enrichment ratio was 13.6. For GSII, the enrichment ratio was 5.86. The same measure for WSGF: at most 0.25. With IQPH the figure was at most 0.25; with AAQL, at most 0.25. With WMTR the figure was at most 0.25; with SNNN, 16.8; with MKCK, at most 0.25. Regarding DYIQ, the enrichment ratio was at most 0.25. The same measure for DVIV: at most 0.25.

For RLHN, the enrichment ratio was at most 0.25. As for YYKG, the enrichment ratio was at most 0.25. On to HTRW, for which the enrichment ratio was at most 0.25. The same measure for RSVH: at most 0.25; for MVFR: at most 0.25; for SCCC: 5.65. DNPD: the enrichment ratio is at most 0.25. With FVTS the figure was 0.605.

With DRYN, the enrichment ratio was at most 0.25.

As to RSRD, the enrichment ratio was at most 0.25. For WALG, the enrichment ratio is at most 0.25. The same measure for DWLH: at most 0.25. In the case of IGAM, the enrichment ratio was at most 0.25. In the case of LQSW, the enrichment ratio was at most 0.25. With GMEV the figure was at most 0.25; with FYGQ, 0.428; with GWWE, at most 0.25. With EDWM, the enrichment ratio was at most 0.25. The same measure for WMFH: at most 0.25; for ANVT: 15; for MQKG: at most 0.25. Take NYLL: the enrichment ratio was at most 0.25. The same measure for RNKN: at most 0.25; for TGAQ: 2.72. Regarding YWCQ, the enrichment ratio is at most 0.25.

As to LCNR, the enrichment ratio was at most 0.25. In the case of RDTE, the enrichment ratio was at most 0.25. For LSYR, the enrichment ratio was at most 0.25. With LGTP the figure was at most 0.25. For AEVM, the enrichment ratio was 46.8. For PIFQ, the enrichment ratio is at most 0.25. The same measure for LIMV: at most 0.25; for KHIM: at most 0.25; for QASM: 8.25.

Take PSQD: the enrichment ratio is at most 0.25. Take PDQV: the enrichment ratio is at most 0.25.

As to NAYG, the enrichment ratio was at most 0.25.

For the variant PQLT, the enrichment ratio is at most 0.25.

Regarding YRRC, the enrichment ratio was at most 0.25.

ALTY: the enrichment ratio came to 3.1. HCAK: the enrichment ratio is at most 0.25. As for YWTS, the enrichment ratio is at most 0.25. For TCGL, the enrichment ratio worked out at 13.5. With EACC the figure was at most 0.25; with HNGT, at most 0.25. Regarding DIDT, the enrichment ratio is at most 0.25.

With LFHG, the enrichment ratio is at most 0.25.

KNHY: the enrichment ratio was at most 0.25.

DYKT: the enrichment ratio was at most 0.25. For the variant IIKC, the enrichment ratio is at most 0.25. On to AFRG, for which the enrichment ratio is at most 0.25. For the variant EHLK, the enrichment ratio is at most 0.25. The same measure for HFTY: at most 0.25; for PHSP: at most 0.25; for VPVP: at most 0.25. For KLTD, the enrichment ratio was at most 0.25. With WCFH, the enrichment ratio was at most 0.25.

On to YQPY, for which the enrichment ratio is at most 0.25. The same measure for DAYP: at most 0.25; for YCVP: at most 0.25. On to YHFN, for which the enrichment ratio is at most 0.25. With FYYW the figure was at most 0.25; with DSMI, at most 0.25. As to TPWW, the enrichment ratio was at most 0.25. The same measure for HELE: at most 0.25; for YMCA: at most 0.25; for GRIF: at most 0.25. With AFHS the figure was at most 0.25. As to IWML, the enrichment ratio was at most 0.25. Take PYCR: the enrichment ratio is at most 0.25.

Take QAHK: the enrichment ratio was at most 0.25. On to NCRY, for which the enrichment ratio was at most 0.25. FVDN: the enrichment ratio was at most 0.25. The same measure for HIRP: at most 0.25. The same measure for AILT: 6.15.
